{
  "source": "PubChem BioAssay AID1508642",
  "about": "(National Center for Advancing Translational Sciences (NCATS), 2021)",
  "note": "About 200 (0.47%) of roughly 43,000 compounds were called active. Roughly 12% stayed inconclusive and do not appear here. Calls follow the shape of the dose curve; as a rule, active = well fitted cell-killing curve with a large enough effect; inconclusive = small, poorly fitted or top-dose-only effect, or effect the other way; inactive = flat fitted curve, though single readings scatter. The list shows a part of the results. % is scaled to controls: 0 for no effect and ±100 for the full control effect.",
  "data": [
    {"assay": "Cell viability qHTS assay in S16 Pmp22-F2sN cells; also: nearly all actives have a fitted effect of over 65% in size", "conditions": "S16 Pmp22-F2sN Schwann cells (luciferase reporters placed in the Pmp22 gene) viability, CellTiter-Glo, 24 h; series mostly up to 57.5 µM; activity change, negative = cytotoxicity: at the top concentration", "from_the_text": "Assay Provider: Jim Inglese Ph.D. National Center for Advancing Translational Science, National Institutes of Health, Rockville, MD CMT is a heterogeneous group of neurological disorders that affect approximately 1 in 2,500 people. In particular, the most common form of CMT, CMT1A is genetically linked to the duplication of the PMP22 gene which leads to Schwann cell overexpression, thus manifesting itself as a typical case of dose-sensitive diseases. To identify small molecule compounds that can mediate the expression of PMP22 we developed a phenotypic assay screening strategy by utilizing genome editing techniques to construct Schwann cell lines containing novel reporter technology to monitor the transcriptional or translational regulation of PMP22. For high sensitivity we use a bioluminescent reporter system embedded in the 3' UTR of the PMP22 gene (S16(c9) Pmp22-F2sN) to identify compounds that inhibit gene expression. […] We can further discriminate the effect of all transcriptionally active molecules on PMP22 translation or stability with an assay that incorporates a short NLuc peptide (HiBiT) at the C-terminus of expressed PMP22 (S16(f8) PMP22-HiBiT) allowing alpha complementation and luminescence detection of membrane-associated PMP22 protein. These assays were screened against the NCATS Sytravon Library Collection. Miniaturization of these assays to 1536-well plate format for quantitative high throughput screening (qHTS) yielded rich data sets immediately from the qHTS assay (S16(c9) Pmp22-F2sN), when compared with data from a cell viability assay (Cell TiterGlo) to identify compounds that decreased the output signals through cellular toxicity to streamline the selection process of actives for subsequent characterization using the HiBiT assay (S16(f8) PMP22-HiBiT).\nCell viability assay in S16 Pmp22-F2sN cells PROTOCOL TABLE (format as described by Inglese J, Shamu CE and Guy RK. 2007) SEQUENCE No. (e.g., 1, 2, 3, etc.); […] (e.g., Cells, Incubation, Reagent, etc.); VALUE and DESCRIPTION. 1. Cells. Add 500-1,000 cells in 4 uL in growth media (DMEM High Glucose, No Phenol Red media + 10% heat-inactivated FBS + 1% Pen/Strep supplemented media) per well into Greiner 1536-well white/solid bottom high base, TC-treated plates. 2. Compounds. Library compounds and controls added at 23nL per well, transferred by Pin Tool. 3. Incubation. Incubate plates at 37C, 5% CO2, 95% RH for 24 h. 4. Reagent. Add 3uL CellTiter-Glo per well of Greiner 1536-well plates. 5. Incubation. Incubate plates at room temperature for 15 min., protect from light. 6. Detector. FLuc luminescence measured using CCD-based camera (Viewlux). NOTES (numbers refer to Sequence numbers above; values are from representative experiments) 6. Luminescence Read: Clear filter; Exposure = 1 sec, Gain = High, Speed = Slow, Binning = 2X REFERENCES: 1. Inglese J, Shamu CE and Guy RK, Reporting data from high throughput screening of small molecule libraries, Nature Chemical Biology, 2007, 3(8): 438-441. doi.org/10.1038/nchembio0807-438 2. Yasgar A, Shinn P, Jadhav A, Auld DS, Michael S, Zheng W, Austin CP, Inglese J and Simeonov A, Compound Management for Quantitative High-Throughput Screening. J. Assoc. Lab. Auto., 2008, 13: 79-89. doi: 10.1016/j.jala.2007.12.004", "values": [
      {"smiles": "CCOc1cccc(C(=O)N(Cc2ccc(CC)cc2)C2CCS(=O)(=O)C2)c1", "note": "(stereo not drawn)", "activity change, negative = cytotoxicity": "inactive: 0.461%"},
      {"smiles": "COc1ccccc1NC(=O)CSC1=Nc2ccccc2C2=NC(CCC(=O)NCc3cccs3)C(=O)N12", "note": "(stereo not drawn)", "activity change, negative = cytotoxicity": "inactive: 1.17%"},
      {"smiles": "CCCCN(CC)C(=O)Cn1ncc2c3ccccc3n(CCC)c2c1=O", "activity change, negative = cytotoxicity": "inactive: -5.74%"},
      {"smiles": "COc1ccc(-n2cc(C(=O)NCc3ccccc3Cl)c3ccccc3c2=O)cc1", "activity change, negative = cytotoxicity": "inactive: 10.4%"},
      {"smiles": "CCC(C)NC(=O)c1cccc(NC(=O)c2nsc3ccccc23)c1", "note": "(stereo not drawn)", "activity change, negative = cytotoxicity": "inactive: 1.26%"},
      {"smiles": "COc1cc2nc(SCC(=O)Nc3ccccc3F)n3nc(-c4ccccc4)nc3c2cc1OC", "activity change, negative = cytotoxicity": "inactive: -2.43%"},
      {"smiles": "COc1ccc(-c2nc3scc(CCNS(=O)(=O)c4ccc(NC(C)=O)cc4)n3n2)cc1", "activity change, negative = cytotoxicity": "inactive: -16.5%"},
      {"smiles": "COc1ccccc1C(=O)N1CCN(Cc2cc(=O)oc3cc(C)ccc23)CC1", "activity change, negative = cytotoxicity": "inactive: -14%"},
      {"smiles": "Cc1ccc(CNC(=O)c2ccc(CSCc3ccccc3C)o2)cc1", "activity change, negative = cytotoxicity": "inactive: 2.68%"},
      {"smiles": "COc1ccc(-c2nc3ccc(NS(=O)(=O)c4ccc(Cl)cc4)cc3o2)cc1", "activity change, negative = cytotoxicity": "inactive: -1.28%"},
      {"smiles": "CCc1ccc(NC(=O)CSc2nc3c(sc4ccccc43)c(=O)n2CCCOC(C)C)cc1", "activity change, negative = cytotoxicity": "inactive: 0.571%"},
      {"smiles": "CCOc1ccc(-c2nc(Cn3ccn4nc(-c5ccc(OCC)c(Cl)c5)cc4c3=O)c(C)o2)cc1", "activity change, negative = cytotoxicity": "inactive: -5.66%"},
      {"smiles": "Cc1ccccc1Nc1cc(C(=O)NCc2cccs2)c2ccccc2n1", "activity change, negative = cytotoxicity": "inactive: -22.2%"},
      {"smiles": "CCOc1ccc(NCc2cccn2-c2nnc(N3CCC(C(=O)NCCOC)CC3)s2)cc1", "activity change, negative = cytotoxicity": "inactive: 4.2%"},
      {"smiles": "C=C(C)Cn1c(=O)c2c(nc3n2CCN3c2ccc(F)cc2)n(C)c1=O", "activity change, negative = cytotoxicity": "inactive: 4.1%"},
      {"smiles": "Cc1cc(=O)n2nc(N3CCC(C(=O)NCc4ccc(F)cc4)CC3)sc2n1", "activity change, negative = cytotoxicity": "inactive: 3.13%"},
      {"smiles": "COc1ccc(Nc2ncc(C(=O)N3CCN(c4ccc(F)cc4)CC3)c3ccccc23)cc1", "activity change, negative = cytotoxicity": "inactive: -6%"},
      {"smiles": "COc1ccc(C)cc1N(C)C(=O)c1c2c(nc3ccccc13)C(=O)N(C1CCCCC1)C2", "activity change, negative = cytotoxicity": "inactive: -15.2%"},
      {"smiles": "Cc1noc(Cn2c(=O)c3cc4c(cc3n(CC(=O)Nc3ccccc3Br)c2=O)OCO4)n1", "activity change, negative = cytotoxicity": "inactive: -3.29%"},
      {"smiles": "O=C(Nc1sc2c(c1C(=O)N1CCCCC1)CCCC2)c1ccccc1Cl", "activity change, negative = cytotoxicity": "inactive: -24.2%"},
      {"smiles": "COc1ccc(NC(=O)CNC(=O)Cn2c(C)cc3ccccc3c2=O)cc1OC", "activity change, negative = cytotoxicity": "inactive: 1.04%"},
      {"smiles": "CN(C)c1ccc(CNC(=O)CCS(=O)(=O)c2ccc3c(c2)oc(=O)n3C)cc1", "activity change, negative = cytotoxicity": "inactive: -1.25%"},
      {"smiles": "O=C(CN1C(=O)CCc2cc(S(=O)(=O)N3CCOCC3)ccc21)Nc1cccc(C(F)(F)F)c1", "activity change, negative = cytotoxicity": "inactive: -5.66%"},
      {"smiles": "Cc1ccc2c(=O)cc(C(=O)Nc3sc4c(c3C(=O)NCc3ccccc3)CCCC4)oc2c1C", "activity change, negative = cytotoxicity": "inactive: 10.9%"},
      {"smiles": "CCCCCCOc1ccc(C2C(=O)N(C3CCCCC3)CC(=O)N2CCCC)cc1", "note": "(stereo not drawn)", "activity change, negative = cytotoxicity": "inactive: -17.3%"},
      {"smiles": "CCOc1cccc(C(=O)Nc2cc(-c3ccc(C)cc3)no2)c1", "activity change, negative = cytotoxicity": "inactive: -8.27%"},
      {"smiles": "CCCS(=O)(=O)N1CCCC(C(=O)NCCOC)C1", "note": "(stereo not drawn)", "activity change, negative = cytotoxicity": "inactive: -20.4%"},
      {"smiles": "CCCCN(CCCC)C1=C(C(=O)c2ccccc2)N(C)S(=O)(=O)c2ccccc21", "activity change, negative = cytotoxicity": "inactive: -8.03%"},
      {"smiles": "Cc1ccccc1CNC(=O)CN(c1cccc(C)c1C)S(C)(=O)=O", "activity change, negative = cytotoxicity": "inactive: -0.0002%"},
      {"smiles": "O=C(CSc1cn(CC(=O)N2CCOCC2)c2ccccc12)Nc1ccccc1", "activity change, negative = cytotoxicity": "inactive: 6.27%"},
      {"smiles": "O=C(COCc1cc(-c2ccc3c(c2)OCO3)on1)NCc1ccccc1Cl", "activity change, negative = cytotoxicity": "inactive: 3.59%"},
      {"smiles": "O=C(Nc1c(C(=O)O)oc2ccccc12)c1ccc(C(F)(F)F)cc1", "activity change, negative = cytotoxicity": "inactive: -3.59%"},
      {"smiles": "CC1=C(c2ccc(C)c(C)c2)S(=O)(=O)N(Cc2ccc(C(=O)NC(C)c3ccccc3)cc2)C1=O", "note": "(stereo not drawn)", "activity change, negative = cytotoxicity": "inactive: -2.63%"},
      {"smiles": "Cc1ccccc1Cc1c(C)nc2nc(SCC(=O)NCCc3ccc(Cl)cc3)nn2c1C", "activity change, negative = cytotoxicity": "inactive: -28.9%"},
      {"smiles": "O=C(COc1ccccc1)Nc1ccccc1OCc1cc(=O)n2ccccc2n1", "activity change, negative = cytotoxicity": "inactive: 3.92%"},
      {"smiles": "COc1ccccc1OCC(=O)NCc1nc(-c2ccc(Cl)cc2)no1", "activity change, negative = cytotoxicity": "inactive: -0.893%"},
      {"smiles": "CCOc1ccc(C(=O)Nc2ccc(S(=O)(=O)Nc3nc(C)cc(C)n3)cc2)cc1OC", "activity change, negative = cytotoxicity": "inactive: -2.96%"},
      {"smiles": "COCCCNC(=O)CSc1nc2cc3c(cc2c(=O)n1CCCC(=O)NCc1ccc(OC)cc1)OCO3", "activity change, negative = cytotoxicity": "inactive: 1.68%"},
      {"smiles": "Cn1c(=O)c2c(nc(Oc3ccccc3)n2Cc2c(Cl)cccc2Cl)n(C)c1=O", "activity change, negative = cytotoxicity": "inactive: -2.59%"},
      {"smiles": "O=C(COc1ccccc1[N+](=O)[O-])Nc1cccc(-c2nc3ccccc3s2)c1", "activity change, negative = cytotoxicity": "inactive: -2.46%"},
      {"smiles": "COc1ccc(N(CC(=O)Nc2cc(C)ccc2C)S(=O)(=O)c2ccc(OC)c(OC)c2)cc1", "activity change, negative = cytotoxicity": "inactive: -12.1%"},
      {"smiles": "CCc1ccc(C2c3c(oc4ccc(F)cc4c3=O)C(=O)N2c2nc(C)c(C(=O)OC)s2)cc1", "note": "(stereo not drawn)", "activity change, negative = cytotoxicity": "inactive: -5.37%"},
      {"smiles": "COc1cc(NC(=O)CSc2nc3nc(C)c(Cc4ccc(C)cc4)c(C)n3n2)cc(OC)c1OC", "activity change, negative = cytotoxicity": "inactive: -5.62%"},
      {"smiles": "O=C(Nc1ccc(F)cc1F)c1ccc2c(O)c(S(=O)(=O)c3ccc(Cl)cc3)c(=O)[nH]c2c1", "activity change, negative = cytotoxicity": "inactive: 5.05%"},
      {"smiles": "CCOc1ccc(NC(=O)CN2C(=O)COc3ccc(S(=O)(=O)NC4CCCC4)cc32)cc1", "activity change, negative = cytotoxicity": "inactive: -6.31%"},
      {"smiles": "COC(=O)c1sccc1S(=O)(=O)N(CC(=O)Nc1c(C)cccc1C)c1ccc(C)c(C)c1", "activity change, negative = cytotoxicity": "inactive: -11.8%"},
      {"smiles": "COc1ccc2c(c1)c(=O)c(S(=O)(=O)c1ccc(C)cc1)cn2Cc1ccccc1C", "activity change, negative = cytotoxicity": "inactive: 5.6%"},
      {"smiles": "CCOC(=O)N1CCc2c(sc3c2c(=O)n(Cc2ccccc2)c(=O)n3CC(=O)Nc2ccc(C)c(C)c2)C1", "activity change, negative = cytotoxicity": "inactive: 11.2%"}
    ]}
  ]
}
